Data reported in paper PMC5140057.
No constants are given. Whether binding was seen depends on the method and setting. For part of these data: Binding seen in cells or lysates may run through a third protein. Some binding calls cover weakened binding; strength is not graded here. Sequences can lack the tags named with a protein.

T1: Orc5, subunit of the origin recognition complex (ORC), two-hybrid fusion (S. cerevisiae) (UniProt P50874)
T1 sequence: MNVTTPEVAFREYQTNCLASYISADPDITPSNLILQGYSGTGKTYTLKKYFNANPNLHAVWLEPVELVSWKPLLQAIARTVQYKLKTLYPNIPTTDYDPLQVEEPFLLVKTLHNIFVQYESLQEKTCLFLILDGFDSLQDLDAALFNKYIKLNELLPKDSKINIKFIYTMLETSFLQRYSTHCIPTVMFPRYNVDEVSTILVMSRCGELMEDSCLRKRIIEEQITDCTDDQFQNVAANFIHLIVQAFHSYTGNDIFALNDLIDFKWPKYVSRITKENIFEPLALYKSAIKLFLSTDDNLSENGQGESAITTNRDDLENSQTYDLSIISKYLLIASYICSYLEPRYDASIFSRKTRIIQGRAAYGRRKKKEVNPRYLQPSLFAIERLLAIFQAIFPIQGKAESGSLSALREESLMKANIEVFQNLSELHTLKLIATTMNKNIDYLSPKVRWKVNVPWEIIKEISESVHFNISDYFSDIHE

T2: Rrm3-myc (S. cerevisiae) (UniProt P38766)
T2 sequence: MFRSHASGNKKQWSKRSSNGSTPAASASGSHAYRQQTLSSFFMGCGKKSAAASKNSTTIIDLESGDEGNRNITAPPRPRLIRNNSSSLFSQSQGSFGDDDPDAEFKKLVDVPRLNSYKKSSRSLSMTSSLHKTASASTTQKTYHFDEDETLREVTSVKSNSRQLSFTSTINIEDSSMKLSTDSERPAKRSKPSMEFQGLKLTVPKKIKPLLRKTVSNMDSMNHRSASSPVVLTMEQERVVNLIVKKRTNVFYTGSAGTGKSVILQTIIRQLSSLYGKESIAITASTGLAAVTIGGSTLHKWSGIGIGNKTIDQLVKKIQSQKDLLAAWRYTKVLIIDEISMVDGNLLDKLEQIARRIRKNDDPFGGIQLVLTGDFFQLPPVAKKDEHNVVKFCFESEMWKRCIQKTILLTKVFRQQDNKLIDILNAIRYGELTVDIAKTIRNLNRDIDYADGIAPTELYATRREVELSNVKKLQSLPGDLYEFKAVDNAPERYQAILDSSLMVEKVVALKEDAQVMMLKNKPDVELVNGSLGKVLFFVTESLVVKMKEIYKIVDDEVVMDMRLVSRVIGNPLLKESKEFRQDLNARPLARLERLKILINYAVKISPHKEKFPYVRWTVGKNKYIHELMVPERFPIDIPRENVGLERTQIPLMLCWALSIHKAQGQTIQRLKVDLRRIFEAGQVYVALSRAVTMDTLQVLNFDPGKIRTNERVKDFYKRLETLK

T3: rrm3-ΔN186-myc (S. cerevisiae) (UniProt P38766)
T3 sequence: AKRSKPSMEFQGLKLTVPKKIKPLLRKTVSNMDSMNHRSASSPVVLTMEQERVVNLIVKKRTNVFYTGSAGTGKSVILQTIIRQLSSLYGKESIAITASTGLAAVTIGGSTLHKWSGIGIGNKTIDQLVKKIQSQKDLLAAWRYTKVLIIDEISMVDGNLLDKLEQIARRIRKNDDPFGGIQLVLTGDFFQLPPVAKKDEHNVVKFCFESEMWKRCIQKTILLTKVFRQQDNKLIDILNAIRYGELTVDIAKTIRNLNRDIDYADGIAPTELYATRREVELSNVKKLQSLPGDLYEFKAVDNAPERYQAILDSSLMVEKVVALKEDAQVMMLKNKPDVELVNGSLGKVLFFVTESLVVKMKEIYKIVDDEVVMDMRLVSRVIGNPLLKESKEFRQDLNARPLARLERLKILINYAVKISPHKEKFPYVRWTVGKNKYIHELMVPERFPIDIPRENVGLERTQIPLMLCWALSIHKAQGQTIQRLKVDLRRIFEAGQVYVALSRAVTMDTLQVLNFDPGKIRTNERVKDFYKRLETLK


What was measured:
[1] = target: T1, Orc5, subunit of the origin recognition complex (ORC), two-hybrid fusion (S. cerevisiae); test: two-hybrid; lexA-fusion bait (pEG202) and B42-tagged prey (pJG4-5*) in yeast EGY48 with pSH18-34; growth on SC-His-Trp-Leu (LEU2 reporter) with galactose, with or without HU or MMS; colony growth after 72 hours
[2] = target: T2, Rrm3-myc (S. cerevisiae); test: co-IP; lysates of yeast cells expressing Orc5-V5-6xHis and myc-tagged Rrm3 alleles; magnetic beads coated with c-myc antibody, 2 h at 4°C; with or without 300 U Benzonase; blots with antibodies against myc and V5
[3] = target: T3, rrm3-ΔN186-myc (S. cerevisiae); test: as above

Binder | binding [1] | binding [2] | binding [3]
rrm3-ΔN230, two-hybrid fusion (domain or fragment, UniProt P38766 231-723) VLTMEQERVVNLIVKKRTNVFYTGSAGTGKSVILQTIIRQLSSLYGKESIAITASTGLAAVTIGGSTLHKWSGIGIGNKTIDQLVKKIQSQKDLLAAWRYTKVLIIDEISMVDGNLLDKLEQIARRIRKNDDPFGGIQLVLTGDFFQLPPVAKKDEHNVVKFCFESEMWKRCIQKTILLTKVFRQQDNKLIDILNAIRYGELTVDIAKTIRNLNRDIDYADGIAPTELYATRREVELSNVKKLQSLPGDLYEFKAVDNAPERYQAILDSSLMVEKVVALKEDAQVMMLKNKPDVELVNGSLGKVLFFVTESLVVKMKEIYKIVDDEVVMDMRLVSRVIGNPLLKESKEFRQDLNARPLARLERLKILINYAVKISPHKEKFPYVRWTVGKNKYIHELMVPERFPIDIPRENVGLERTQIPLMLCWALSIHKAQGQTIQRLKVDLRRIFEAGQVYVALSRAVTMDTLQVLNFDPGKIRTNERVKDFYKRLETLK | no binding |  | 
Rrm3 (wildtype), two-hybrid fusion (protein, UniProt P38766 1-723) MFRSHASGNKKQWSKRSSNGSTPAASASGSHAYRQQTLSSFFMGCGKKSAAASKNSTTIIDLESGDEGNRNITAPPRPRLIRNNSSSLFSQSQGSFGDDDPDAEFKKLVDVPRLNSYKKSSRSLSMTSSLHKTASASTTQKTYHFDEDETLREVTSVKSNSRQLSFTSTINIEDSSMKLSTDSERPAKRSKPSMEFQGLKLTVPKKIKPLLRKTVSNMDSMNHRSASSPVVLTMEQERVVNLIVKKRTNVFYTGSAGTGKSVILQTIIRQLSSLYGKESIAITASTGLAAVTIGGSTLHKWSGIGIGNKTIDQLVKKIQSQKDLLAAWRYTKVLIIDEISMVDGNLLDKLEQIARRIRKNDDPFGGIQLVLTGDFFQLPPVAKKDEHNVVKFCFESEMWKRCIQKTILLTKVFRQQDNKLIDILNAIRYGELTVDIAKTIRNLNRDIDYADGIAPTELYATRREVELSNVKKLQSLPGDLYEFKAVDNAPERYQAILDSSLMVEKVVALKEDAQVMMLKNKPDVELVNGSLGKVLFFVTESLVVKMKEIYKIVDDEVVMDMRLVSRVIGNPLLKESKEFRQDLNARPLARLERLKILINYAVKISPHKEKFPYVRWTVGKNKYIHELMVPERFPIDIPRENVGLERTQIPLMLCWALSIHKAQGQTIQRLKVDLRRIFEAGQVYVALSRAVTMDTLQVLNFDPGKIRTNERVKDFYKRLETLK | binds |  | 
rrm3-ΔN186, two-hybrid fusion (domain or fragment, UniProt P38766 187-723) AKRSKPSMEFQGLKLTVPKKIKPLLRKTVSNMDSMNHRSASSPVVLTMEQERVVNLIVKKRTNVFYTGSAGTGKSVILQTIIRQLSSLYGKESIAITASTGLAAVTIGGSTLHKWSGIGIGNKTIDQLVKKIQSQKDLLAAWRYTKVLIIDEISMVDGNLLDKLEQIARRIRKNDDPFGGIQLVLTGDFFQLPPVAKKDEHNVVKFCFESEMWKRCIQKTILLTKVFRQQDNKLIDILNAIRYGELTVDIAKTIRNLNRDIDYADGIAPTELYATRREVELSNVKKLQSLPGDLYEFKAVDNAPERYQAILDSSLMVEKVVALKEDAQVMMLKNKPDVELVNGSLGKVLFFVTESLVVKMKEIYKIVDDEVVMDMRLVSRVIGNPLLKESKEFRQDLNARPLARLERLKILINYAVKISPHKEKFPYVRWTVGKNKYIHELMVPERFPIDIPRENVGLERTQIPLMLCWALSIHKAQGQTIQRLKVDLRRIFEAGQVYVALSRAVTMDTLQVLNFDPGKIRTNERVKDFYKRLETLK | binds |  | 

Continued, values first:

binding [1] | binding [2] | binding [3] | Binder
 | binds | binds | Orc5-V5-6xHis (protein, UniProt P50874 1-479) MNVTTPEVAFREYQTNCLASYISADPDITPSNLILQGYSGTGKTYTLKKYFNANPNLHAVWLEPVELVSWKPLLQAIARTVQYKLKTLYPNIPTTDYDPLQVEEPFLLVKTLHNIFVQYESLQEKTCLFLILDGFDSLQDLDAALFNKYIKLNELLPKDSKINIKFIYTMLETSFLQRYSTHCIPTVMFPRYNVDEVSTILVMSRCGELMEDSCLRKRIIEEQITDCTDDQFQNVAANFIHLIVQAFHSYTGNDIFALNDLIDFKWPKYVSRITKENIFEPLALYKSAIKLFLSTDDNLSENGQGESAITTNRDDLENSQTYDLSIISKYLLIASYICSYLEPRYDASIFSRKTRIIQGRAAYGRRKKKEVNPRYLQPSLFAIERLLAIFQAIFPIQGKAESGSLSALREESLMKANIEVFQNLSELHTLKLIATTMNKNIDYLSPKVRWKVNVPWEIIKEISESVHFNISDYFSDIHE
no binding |  |  | rrm3-ΔN212, two-hybrid fusion (domain or fragment, UniProt P38766 213-723) KTVSNMDSMNHRSASSPVVLTMEQERVVNLIVKKRTNVFYTGSAGTGKSVILQTIIRQLSSLYGKESIAITASTGLAAVTIGGSTLHKWSGIGIGNKTIDQLVKKIQSQKDLLAAWRYTKVLIIDEISMVDGNLLDKLEQIARRIRKNDDPFGGIQLVLTGDFFQLPPVAKKDEHNVVKFCFESEMWKRCIQKTILLTKVFRQQDNKLIDILNAIRYGELTVDIAKTIRNLNRDIDYADGIAPTELYATRREVELSNVKKLQSLPGDLYEFKAVDNAPERYQAILDSSLMVEKVVALKEDAQVMMLKNKPDVELVNGSLGKVLFFVTESLVVKMKEIYKIVDDEVVMDMRLVSRVIGNPLLKESKEFRQDLNARPLARLERLKILINYAVKISPHKEKFPYVRWTVGKNKYIHELMVPERFPIDIPRENVGLERTQIPLMLCWALSIHKAQGQTIQRLKVDLRRIFEAGQVYVALSRAVTMDTLQVLNFDPGKIRTNERVKDFYKRLETLK
